# Reference: ChEMBL document CHEMBL4888484, “Replenishing the malaria drug discovery pipeline: Screening and hit evaluation of the MMV Hit Generation Library 1 (HGL1) against asexual blood stage Plasmodium falciparum ,using a nano luciferase reporter read-out” (2022)
# Hit rate of the full screen: of about 150,000 compounds, about 540 (0.36%) showed an effect of 50% or more. Some of the results follow.
# System: Plasmodium falciparum
# Assay: Primary screen in NF54 nanoGlo assay, in single point, at 2uM, 72h; a lower Z score goes with more inhibition
# Assay type: functional, Erythrocyte
# Settings: timepoint 72 hour
SMILES,% Inhibition,Z score
CN(CC(=O)N1CCC1)c1ccc(-c2nccs2)cc1,-4%,0.8
CCC(C)(C)c1cc(-c2cnn(C)c2C)c(C#N)c(N)n1,-9%,1.34
Cc1cc(N(C)C)nc(N2CCN(C(=O)Nc3ccc4c(c3)OCCO4)CC2)n1,-13%,1.18
Cc1nc(C(C)C)ncc1C(=O)N1CC[C@](C)(O)[C@H](CC(C)C)C1,-2%,0.42
C[C@H]1CCCN(C(=O)C2CCOCC2)CC1,-3%,0.43
Cc1noc(NC(=O)CCn2nnnc2C)c1-c1ccccc1,-10%,1.8
CC(C)OCc1nc(-c2c[nH]c3ncccc23)cs1,10%,-0.99
Clc1cccc(Cl)c1CNc1nc(-c2ccco2)n[nH]1,-17%,1.94
O=c1[nH]ccc2ccn(Cc3ccccc3F)c12,3%,-0.39
CCc1nc(-c2cc(S(=O)(=O)NCC(=O)NC3CCCCC3)c(C)s2)no1,3%,-0.3
N#Cc1ccc(N2CCCN(C(=O)c3ccc(F)cc3F)CC2)cn1,-6%,0.71
COc1cccc2c1N(CC(=O)NCC(F)(F)F)CC[C@@H]2C,39%,-5.67
Cc1n[nH]cc1CN1CCC[C@](C)(F)C1,0%,0.06
Cc1cnc(CN2CC3(CCC2=O)CCN(c2ncncc2C(C)C)CC3)cn1,-12%,1.48
CCCO/C(=N/C(=O)c1cccc(OC)c1)NCc1ccccc1,2%,-0.28
Cc1ccnc(NS(=O)(=O)c2ccc(NC(=O)c3cc(-c4ccccc4)on3)cc2)n1,4%,-0.52
CCn1c(=O)c(CCC(=O)Nc2cc(C)ccc2OC)nc2c(C)nn(-c3ccccc3)c21,2%,-0.33
COCCNC(=O)NCc1ccccn1,-9%,0.99
CC(C)C[C@H](C)N(C)C(=O)Cc1cccc(O)c1,8%,-1.03
Cn1cc(NC(=O)Cn2ccc3cc(-c4ccc5c(c4)OCO5)ccc32)nn1,-3%,0.26
CC(=O)N(Cc1ccccc1OS(C)(=O)=O)CC1CC1,1%,-0.21
O=C(Nc1ccc2cccc(Cl)c2n1)c1c(C(F)(F)F)nc2n1CCCC2,-18%,2.86

SMILES,% Inhibition,Z score
COCCC1(CNC(=O)NCc2ccccn2)CCC1,-2%,0.37
CCN1CC[C@H](Nc2nc3cc(C(F)(F)F)ccc3s2)C1=O,-7%,0.89
CN(Cc1ccccc1)C(=O)CC[C@@H]1NC(=O)c2ccccc2N=C1O,4%,-0.5
COc1ncncc1NC(=O)NCC1CCOCC1,-4%,0.45
Cc1ccc2ncn(CC(=O)N3CCN(C4CC4)C[C@H](C)C3)c2c1,2%,-0.27
O=C1NC(=O)C2(CCN(S(=O)(=O)Cc3ccccc3)CC2)N1,-3%,0.63
O=C(NCCc1nnc[nH]1)c1cc(Cl)cc(Br)c1O,0%,0.06
Cc1ccc(CNC(=O)[C@H]2CCc3ncncc3C2)n1C,-3%,0.61
CCc1noc(C)c1C(=O)NC1CCN(CC)CC1,-14%,1.91
CCO[C@@H](C)c1nccn1Cc1nnc(C(C)C)o1,-3%,0.47
Cc1cnc(NC(=O)N2CCOC3(CCOC3C)C2)cn1 (configuration not stated),-7%,1.07
COc1ccc(N2C(=O)C3C4CC5C(OC2(C(C)C)C53)C4O)cc1 (configuration not stated),-6%,0.92
CCN(CC)C(=O)[C@H](C1CCCC1)N1CCN(C(=O)Nc2ccc(C(C)C)cc2)CC1,-12%,1.78
CCc1ccc(C(=O)c2ccc(NCc3nnc(C(C)C)o3)cc2)o1,-4%,0.47
Cc1cc(F)ccc1S(=O)(=O)N1CCC[C@H](Cn2cncn2)C1,2%,-0.33
COc1cccc(Cn2nnc3cc(C(=O)N4CCN(c5cccc(Cl)c5)CC4)ccc32)c1,-11%,1.11
CC1CCN(C(=O)c2ccc(NCc3ccco3)nc2)CC1,-15%,2.11
Cn1cncc1C(=O)NC[C@H]1CC12CCCCC2,5%,-0.66
CC1N(CCOC2CCCCO2)CCC12CCOCC2 (configuration not stated),12%,-1.74
O=C(c1ccc(F)c(F)c1)N1CC[C@H](Oc2ncccc2C(=O)N2CCCCC2)C1,-16%,2.65
Cc1cc(S(=O)(=O)Nc2cccc(CN3CCOCC3)n2)c(C)o1,-1%,0.15
CC[C@]1(O)CCCN(C(=O)Cc2cc(C)ccn2)C1,-2%,0.3

SMILES,% Inhibition,Z score
C[C@H](NC(=O)CCCC(=O)N(C)C)c1c(Cl)ccc(F)c1Cl,-9%,1.29
CO[C@@H](C)C(=O)N1CC(n2cc(-c3ccccc3)nn2)C1,-8%,0.77
CCCS(=O)(=O)N(CCOC)CC(=O)N(Cc1ccc(Cl)cc1)C1CCN(C(=O)Nc2ccccc2F)CC1,-1%,0.12
CCCc1noc(-c2cc(-c3cccn3C)n[nH]2)n1,-1%,0.2
COc1ccc(Cn2nc(C)n(-c3ccc(C(C)C)cc3)c2=O)cc1,-6%,1.07
C#CCCC1(CCC(=O)N(C)Cc2ccoc2)N=N1,-16%,1.99
COC[C@H](Nc1ccc(Cc2nnc3n2CCC3)cc1)C1CC1,-3%,0.36
Cc1nn(Cc2nc(CC(C)C)no2)c(C)c1Br,-12%,1.12
O=C(Nc1nccs1)C(F)(F)C(F)(F)C(F)(F)C(F)(F)C(F)(F)C(F)(F)C(F)(F)C(F)(F)C(F)(F)C(F)(F)Cl,1%,-0.09
COCc1cc(CNC(=O)C(C)(C)N2CCCC2)n[nH]1,4%,-0.83
O=C(C[C@H]1Cn2cccc2C1=O)Nc1ccc(O)cc1,-10%,1.21
O=C(NCC1CCN(C(=O)c2nc(=O)[nH]c3ccccc23)CC1)[C@H]1CCOC1,-13%,2.47
CCN1C[C@]2(CCCN(C(=O)COc3ccccc3O)C2)CCC1=O,-9%,1.71
Cc1cccc2c1OCC(NC(=O)N1CCCC1C1COCCC1(C)O)C2 (configuration not stated),-2%,0.38
C[C@H](NCc1cc(C(N)=O)cs1)c1cccc(Cl)c1,34%,-1.06
CC(C)(C)n1ncc(-c2ccccc2)c1NC(=O)c1cnccn1,-7%,1.09
COCCN(Cc1cccn1C)C[C@H](O)COCC(C)C,-8%,1.12
Cc1c(NC(=O)c2ccc3c(c2)N(C)CCO3)cccc1C(=O)N1CCOCC1,2%,-0.27
COCCN(Cc1cc2cc(C)ccc2nc1N1CCCC1)C(=O)c1cc(C)nn1C,-14%,1.78
CN(C)S(=O)(=O)c1ccc(N2CCCC2)c(C(=O)N2CCCN(C(N)=O)CC2)c1,0%,0.04
COCc1nc(CCCc2ccc(Cl)cc2)n(CC(C)(C)O)n1,-14%,1.75
O=C(N[C@H]1CCOC[C@@H]1OCC1CCC1)c1ccnc(-n2cnnc2)c1,-3%,0.41

SMILES,% Inhibition,Z score
CC(C)n1c(N2CCN(C(=O)Cc3ccccc3)CC2)cc(=O)n(C(C)C)c1=O,3%,-0.43
O=c1[nH]c2cccnc2n1[C@@H]1CCN(Cc2c[nH]nc2-c2ccc(F)cc2)C1,0%,-0.05
O=C(Nc1ccccc1)C(=O)N1CCN(CC2CC2)[C@@H]2CS(=O)(=O)C[C@@H]21,-7%,0.76
COc1ccc(-c2noc(-c3cccnc3NCc3ccc(C)cc3)n2)cc1,-3%,0.39
OCC[C@H]1CCc2ccccc2N1Cc1cnc2ccccc2n1,4%,-0.42
COc1cc(OC)cc([C@@H]2c3nc[nH]c3CCN2CC2CCCC2)c1,2%,-0.37
CC(=O)N[C@H]1C[C@H]2CN(Cc3ccc(C)cn3)[C@@H](CC(C)C)C(=O)N2C1,-6%,1
CCOc1ncc(Br)cc1C(=O)O,33%,-4.23
Cc1ccc(OCC(=O)Nc2ccc3c(c2)OCO3)cn1,-9%,1.28
Cc1nn(C)c(C(=O)N2CCC3(CCCC3)C2)c1Cl,1%,-0.28
NC(=O)c1ccc(C(=O)N[C@H]2CCOC[C@@H]2OCc2cscn2)cc1,-3%,0.46
CN(C[C@H]1CCN(C)C1(C)C)C(=O)C(=O)CCc1ccccc1,-1%,0.1
COc1ccc(C2CN(C(=O)CC(C)(C)C)CC2C(=O)N2CCCC2)cc1 (configuration not stated),3%,-0.37
C[C@@H](CC(C)(C)O)NCCOc1ccccc1Cl,-7%,0.82
C[C@H]1CCCCCN1C(=O)C1=CCCCO1,8%,-0.73
O=C(Cn1cnc2c(c1=O)COCC2)c1ccccc1OC(F)F,-5%,0.55
Cc1ccc2oc(N3C[C@@H]4OC(=O)N(C5CCN(C(C)C)CC5)[C@@H]4C3)nc2c1,6%,-1.11
COc1ncc(Cl)c(N2CCC(c3nc(C)no3)CC2)n1,2%,-0.44
O=C(Nc1ccccc1)N(CCc1ccncc1)C1CCCCC1,-11%,1.76
C[C@H](Oc1ccccc1)C(=O)N1CCn2nc(Cc3ccccc3)cc2C1,-3%,0.39
